In PubChem BioAssay AID588855 (National Center for Advancing Translational Sciences (NCATS), 2011):
Out of some 410,000 compounds screened, about 5,000 (1.2%) were called active. Inconclusive means that the source gave no clear call. Such entries were picked first, then a sample of the others. Calls follow the shape of the dose curve; as a rule, active = well fitted inhibition curve with a large enough effect; inconclusive = small, poorly fitted or top-dose-only effect; inactive = no such curve, though single readings can be large or run the other way. A potency beside an inconclusive call is a rough fit, not a confirmed value.

Assay: qHTS for Inhibitors of TGF-b; also: nearly all actives have a fitted effect of over 65% in size
Conditions: HepG2 CAGA-GFP TGF-b/SMAD3 reporter, GFP fluorescence, 18 h, TGF-beta stimulated, 500 pg/mL final; series mostly up to 46.1 µM; activity, negative = inhibition: at the top concentration
Procedure, shortened: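 Using HEPG2 CAGA-GFP reporter cells at 1000 cells/well, we pinned test compounds, stimulated with recombinant TGF-beta (500 pg/mL final) and measured total well GFP after 18 h.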
% is scaled to controls: 0 for no effect and ±100 for the full control effect; potency is read from the fitted curve at half-maximal effect; tags tell the direction and shape of the fitted curve.

| Structure (SMILES) | activity, negative = inhibition | Potency |
| --- | --- | --- |
| CC(C)C[C@H]1C(=O)N2CCC[C@H]2[C@]2(O)O[C@](NC(=O)[C@@H]3C=C4c5cccc6[nH]cc(c56)C[C@H]4N(C)C3)(C(C)C)C(=O)N12 | inactive: 0.167% | – |
| O=C(CCCN1CCC2(CC1)C(=O)NCN2c1ccccc1)c1ccc(F)cc1 | – | inconclusive: 3.55 µM [inhibitor, full curve, poor fit] |
| Cc1cccc(C)c1-n1nnnc1C(c1cccs1)N1CCC2(CC1)C(=O)NCN2c1ccccc1 (centres undefined) | – | inconclusive: 20 µM [inhibitor, single point] |
| Cc1ccc(S(=O)(=O)N(C)C[C@H]2Oc3cc(Br)ccc3S(=O)(=O)N([C@H](C)CO)C[C@@H]2C)cc1 | inactive: 19.9% | – |
| COc1ccc(C(c2nnnn2-c2ccc(OC)cc2)N2CCC(n3c(=O)[nH]c4ccccc43)CC2)cc1 (centres undefined) | – | active: 11.2 µM |
| O=c1[nH]c2ccccc2n1C1CCN(C(CCc2ccccc2)c2nnnn2-c2ccc3c(c2)OCCO3)CC1 (centres undefined) | – | inconclusive: 7.08 µM [inhibitor, full curve, poor fit] |
| c1ccc2c(c1)[IH]c1ccccc1-2 | – | active: 4.47 µM |
| O=C(Nc1ccccc1Cl)OC1CN2CCC1CC2 (centres undefined) | inactive: 0% | – |
| Cc1c(C)n(O)c2ccc3nonc3c12 | – | inconclusive: 15.8 µM [inhibitor, single point] |
| CN(C)CCNC(=O)c1cccn(Cc2cc(C(F)(F)F)cc(C(F)(F)F)c2)c1=O | inactive: 0.452% | – |
| CC1CCCCN1C(=O)c1ccc(N2CC3CC(C2)c2cccc(=O)n2C3)c([N+](=O)[O-])c1 (centres undefined) | inactive: 3.21% | – |
| CCCCn1nnnc1C(c1ccc(OC)cc1)N1CCC2(CC1)C(=O)NCN2c1ccccc1 (centres undefined) | – | inconclusive: 17.8 µM [inhibitor, single point] |
| Cc1ccc([C@H]2C[C@H](O)[C@@H](n3cc(COC(=O)c4ccccc4)nn3)CN2C(=O)C2CCCCC2)cc1 | – | inconclusive: 25.1 µM [inhibitor, single point] |
| c1ccc(-n2ccnc2)cc1 | inactive: 10.4% | – |
| CCCNC(=O)N1[C@H]2CC[C@@H]1C(C(=O)OC)=C(c1cccc(C#N)c1)C2 | inactive: 1.68% | – |
| CC1=C(N2CC2)C(=O)C(CO)=C(N2CC2)C1=O | – | active: 0.316 µM |
| CCn1cc2nc(SCc3cccc(C(F)(F)F)c3)n(Cc3ccc(OC)cc3)c(=O)c2n1 | – | inconclusive: 22.4 µM [inhibitor, partial curve, poor fit] |
| CCn1c(CNC(=O)c2ccc3c(c2)OCO3)nnc1SCC(=O)Nc1cc(C)ccc1OC | – | inconclusive: 6.31 µM [inhibitor, single point] |
| C=CC[C@@H](C)CC(=O)C(CCCN=[N+]=[N-])SOOc1ccccc1 (some centres undefined) | – | inconclusive: 5.62 µM [inhibitor, single point] |
| O=C(COc1ccc(S(=O)(=O)N2CCCCC2)cc1)N1CCN(Cc2ccccc2)CC1 | – | inconclusive: 15.8 µM [inhibitor, single point] |
| CC=C(C)C1(CCC)C(=O)NC(=S)NC1=O | inactive: 0.687% | – |
| CSc1ncc(Cl)c(C(=O)O)n1 | – | inconclusive: 35.5 µM [inhibitor, single point] |

| Structure (SMILES) | activity, negative = inhibition | Potency |
| --- | --- | --- |
| O=[N+]([O-])c1ccc(Cl)c([N+](=O)[O-])c1 | – | active: 5.01 µM |
| COc1cccc(OC)c1CN1CCCC(C(=O)c2cccc(Cl)c2)C1 (centres undefined) | – | inconclusive: 10 µM [inhibitor, partial curve] |
| COc1ccccc1/C=C1\C(=O)NC(=S)N(c2ccccc2)C1=O | inactive: -4.18% | – |
| Cc1ccc(-n2c(/C=C/c3cccc4ccccc34)nc3ccccc3c2=O)cc1 | – | inconclusive: 14.1 µM [inhibitor, single point] |
| O=P(/C(=N/O)N1CCCCC1)(N1CCOCC1)N1CCOCC1 | – | inconclusive: 0.112 µM [inhibitor, full curve, poor fit] |
| COc1cccc(-n2c(/C=C/c3cccc(C)c3)nc3ccccc3c2=O)c1 | inactive: -7.17% | – |
| CCc1ccc(CN2CCN(C(=O)Cc3ccccc3)CC2)cc1 | – | inconclusive: 20 µM [inhibitor, single point] |
| CN1CCCCC1Cc1ccccc1 (centres undefined) | – | inconclusive: 0.631 µM [inhibitor, partial curve, poor fit] |
| O=c1c2ccccc2nc(/C=C/c2ccc3c(c2)OCO3)n1-c1ccccc1 | inactive: -26.9% | – |
| Cc1nn(-c2nccs2)c2c1C(=O)CC(C)(C)C2Br (centres undefined) | – | active: 11.2 µM |
| O=c1[nH]c2ccccc2c(=O)n1-c1ccc(Cl)cc1Cl | inactive: 15.4% | – |
| Cc1ccc2c(c1)C1CN(C)CCC1N2C(=O)c1cccnc1Cl (centres undefined) | inactive: -2.41% | – |
| COC(=O)C1=C(c2ccc(-c3ccccc3)c(F)c2)C[C@@H]2CC[C@H]1N2C(=O)NC(C)C | – | inconclusive: 14.1 µM [inhibitor, single point] |
| O=C(NCc1ccc2c(c1)CCN2C(=O)c1ccccc1)Nc1cccc(C(F)(F)F)c1 | – | active: 2.82 µM |
| O=C1NCN(c2ccccc2)C12CCN(C(c1cc3ccccc3o1)c1nnnn1C1CCCC1)CC2 (centres undefined) | – | inconclusive: 7.94 µM [inhibitor, partial curve, poor fit] |
| Brc1ccc(-[n+]2c(-c3ccccc3)cc(-c3ccccc3)cc2-c2ccccc2)cc1 | – | inconclusive: 35.5 µM [inhibitor, single point] |
| [O-]c1ccccc1-[n+]1c(-c2ccccc2)cc(-c2ccccc2)cc1-c1ccccc1 | – | inconclusive: 35.5 µM [inhibitor, single point] |
| Cc1oc(-c2cccc(Cl)c2)nc1CN1CCC(C(=O)NC(C)c2ccccc2)CC1 (centres undefined) | – | inconclusive: 5.62 µM [inhibitor, full curve] |
| CCCCC(=O)Nc1c(C(=O)N2CCN(c3ccccc3F)CC2)oc2ccccc12 | – | inconclusive: 0.1 µM [inhibitor, full curve, poor fit] |
| CCc1nc2ccc(C(=O)N3CCN(C(=O)c4ccco4)CC3)cn2c1N(C)Cc1ccc(OC)cc1 | – | inconclusive: 5.62 µM [inhibitor, single point] |
| COc1ccc(/C=C/C(=O)NC(=S)N2C[C@H]3C[C@H](C2)c2cccc(=O)n2C3)cc1 | inactive: 7.7% | – |
| CC(=O)O[C@@]12CO[C@@H]1C[C@@H](O)[C@@]1(C)C(=O)[C@H](O)C3=C(C)[C@@H](OC(=O)[C@H](O)[C@@H](NC(=O)c4ccccc4)c4ccccc4)C[C@@](O)([C@@H](OC(=O)c4ccccc4)C12)C3(C)C (some centres undefined) | – | inconclusive: 15.8 µM [inhibitor, single point] |

| Structure (SMILES) | activity, negative = inhibition | Potency |
| --- | --- | --- |
| CC(=O)OC1C(O)C(C)OC(OC2C(OC(=O)C3CCC4C(C3)OC3(CC(OC(=O)/C=C/c5ccccc5)C(C)CO3)C43CO3)OC(C)C(O)C2OC(C)=O)C1O (centres undefined) | – | inconclusive: 0.0891 µM [inhibitor, full curve, poor fit] |
| Nc1nonc1C(=O)N/N=C/c1ccc([N+](=O)[O-])o1 | – | active: 15.8 µM |
| CC(C)CCOP(=O)(c1ccc(N(C)C)cc1)C(O)c1ccc(Cl)cc1Cl (centres undefined) | – | inconclusive: 35.5 µM [inhibitor, single point] |
| CC(=O)c1ccc2c(c1)C1C(Cl)C(Sc3ccccc3[N+](=O)[O-])CC1C(c1ccccc1)N2 (centres undefined) | inactive: -3.11% | – |
| COc1ccc(-n2nnnc2C(CCc2ccccc2)N2CCC(n3c(=O)[nH]c4ccccc43)CC2)cc1 (centres undefined) | – | active: 11.2 µM |
| COC1=CC(=O)O[C@@H](/C=C/c2ccccc2)C1 | inactive: -14.1% | – |
| C[C@@H]1CN([C@@H](C)CO)C(=O)c2cccc(NC(=O)c3ccncc3)c2O[C@@H]1CN(C)Cc1ccc(-c2ccccc2)cc1 | – | inconclusive: 15.8 µM [inhibitor, single point] |
| COC(=O)C(O)(c1ccc(N(C)C)cc1)C(F)(F)F (centres undefined) | inactive: -0.0453% | – |
| C=COCCn1c(C)c(C(=O)OCC)c2cc(O)ccc21 | – | inconclusive: 25.1 µM [inhibitor, single point] |
| COc1ccc(-c2cc(=NCCCCCC(=O)O)c3cc(C)ccc3o2)cc1 | – | inconclusive: 35.5 µM [inhibitor, partial curve, poor fit] |
| COc1ccc(C(=O)C23CN4CN(CN(C4)C2)C3)cc1 | – | inconclusive: 2.24 µM [inhibitor, partial curve] |
| OC1(c2ccc(F)cc2)CC2CCC(C1)N2Cc1nnnn1C1CCCCC1 (centres undefined) | – | inconclusive: 35.5 µM [inhibitor, partial curve, poor fit] |
| CCCC1=Nc2cc(C(=O)NCCc3ccc(OC)cc3OC)ccc2Sc2ccccc21 | – | inconclusive: 35.5 µM [inhibitor, single point] |
| CN1CC=C(c2c[nH]c3ccccc23)CC1 | – | inconclusive: 14.1 µM [inhibitor, single point] |
| Cc1ncc(CN2CCCC(C(=O)c3ccc(C(C)(C)C)cc3)C2)s1 (centres undefined) | inactive: -10.8% | – |
| Cc1ccc(N2C(=O)NC(=O)/C(=C\c3cc(C)n(-c4sc5c(c4C#N)CCCC5)c3C)C2=O)cc1 | – | inconclusive: 7.08 µM [inhibitor, partial curve, poor fit] |
| CC(C)COC(=O)n1c(=O)oc2cc(S(=O)(=O)N3CCCCC3)ccc21 | – | inconclusive: 14.1 µM [inhibitor, single point] |
| NS(=O)(=O)c1ccc(CCNC(=O)c2ccc(Cl)c(S(=O)(=O)N3CCCCC3)c2)cc1 | – | inconclusive: 7.94 µM [inhibitor, partial curve] |
| CC(C)CC1C(=O)N2CCC[C@H]2[C@]2(O)O[C@](NC(=O)[C@@H]3C=C4c5cccc6[nH]c(Br)c(c56)C[C@H]4N(C)C3)(C(C)C)C(=O)N12 (some centres undefined) | – | inconclusive: 5.62 µM [inhibitor, full curve, poor fit] |
| CS(=O)(=O)c1ccc(C2=C(CNC(=O)c3nccs3)[C@H]3CC[C@@H](C2)N3Cc2ccccc2)cc1 | – | inconclusive: 3.55 µM [inhibitor, partial curve, poor fit] |
